The source gives no read counts; variants with many changes may rest on few reads.
B1: LINE1-mini (parent)
chain: GGCAGAGCUCAACACAGCGUGGCAAAGUGGCUGUGGCUAGACUGCC

Variants of: B1
Experiment: self-cleavage, relative activity (ratio to wild type); higher = more cleavage; in vitro, sequencing; the parent is a self-cleaving ribozyme
For G22C G30C U34C, the self-cleavage was 0.16. In the case of G21C G22C G40C, the self-cleavage is reported as 0.05. G21A A39C C46U showed a self-cleavage of 0.42. Variant C23A C31G G36A A39G has a self-cleavage of 0.02. Variant G22A A24G G30U has a self-cleavage of 0.14. U20C G30A G40C gave a self-cleavage of 0.04. In the case of G21C A26C G29U G36A, the self-cleavage is reported as 0.02. G21C U34G G40U gave a self-cleavage of 0.05. In the case of G22A G33A C46A, the self-cleavage is reported as 0.11. In the case of G22U U38A A39U G40U, the self-cleavage is reported as 0.09. Work on U20G G29U G44C yielded a self-cleavage of 0.09. Work on G21U U32C C46U yielded a self-cleavage of 0.24. For G22U G33C A39U, the self-cleavage was 0.04. With U20G G29U G36C A41C the self-cleavage was 0.07. U20G G36C U43C gave a self-cleavage of 0.04. Variant G21U G29C C31G G44U has a self-cleavage of 0.07. Work on G22C C31U G33C A41C yielded a self-cleavage of 0.05. For G21C C23U G27C G35A G44C, the self-cleavage was 0.16. With U20G G29U C31G U32C G33A the self-cleavage was 0.05. With G21A U32C U43G the self-cleavage was 0.31. In the case of G22A G33U C37G A41C, the self-cleavage is reported as 0.04. U20G A26G C46A gave a self-cleavage of 0.04. G22A A25U U32A G35C U38G showed a self-cleavage of 0.01. Variant U20G G21U U34A C37A has a self-cleavage of 0.01. For G21U U28G G30C, the self-cleavage was 1.54. For U20G U38C A39U C42U, the self-cleavage was 0.08. Variant G21A G27U U28C has a self-cleavage of 0.53. For U20C G30A G44A, the self-cleavage was 0.18. In the case of U20C U32C U38A U43G, the self-cleavage is reported as 0. With G21A C31U C42U the self-cleavage was 0.01. G22A U28A G35A gave a self-cleavage of 0.13. Variant G21A G30U U34G has a self-cleavage of 0.04. With G22U G27C U28G the self-cleavage was 0.9. G21A C23A A39C showed a self-cleavage of 0.14. Variant G21C C37A G40A has a self-cleavage of 0.11. For G22A U38A G44A, the self-cleavage was 0.07. G21U G27C C42A showed a self-cleavage of 0.04. Variant G21U A24U C37G A41U C46A has a self-cleavage of 0.02. U20G A24G U34C gave a self-cleavage of 0.03. G22U G30C G35A gave a self-cleavage of 0.22. Variant U20G G21C G36A has a self-cleavage of 0.02. G21U U28C U34A A41U showed a self-cleavage of 0.14. G22C G35U G36A C37U gave a self-cleavage of 0.12. Variant G21U A26U A41C has a self-cleavage of 0.02. With G21C G30A U34A the self-cleavage was 0.02. Work on C23A A24U G27A yielded a self-cleavage of 0.96. In the case of G22C G36C C37A A41G, the self-cleavage is reported as 0.03. In the case of U20G A26C U43C G44U C45G, the self-cleavage is reported as 0.05. For G21C G27U A39G C45G, the self-cleavage was 0.1. For G22A G27A G29A G30A C31A G44C C46U, the self-cleavage was 0.03. In the case of G22C G35U U38A, the self-cleavage is reported as 0.18. Work on U20C G36U C45U yielded a self-cleavage of 0.01. G21C G27A U28A G30A C31G U32A showed a self-cleavage of 0.58. For G21A U32G A41U C45A C46U, the self-cleavage was 0.04. Work on U20G G44C C46G yielded a self-cleavage of 0.03. G22U U28C A41U G44U gave a self-cleavage of 0.05. In the case of G22C C23A G36U, the self-cleavage is reported as 0.08. Variant G22U C23A G35C C37G has a self-cleavage of 0.09. C23A A25C A26U C42G gave a self-cleavage of 0.07. G22C C31U C42G gave a self-cleavage of 0.04. With G22A U28C U34G the self-cleavage was 0.09. With U20C G30C C45G the self-cleavage was 0.2. Variant G22U G29A A41C has a self-cleavage of 0.01. With G22U A25G A26G G27A A39U the self-cleavage was 0.6. With G21U G30U U38C the self-cleavage was 0.72. Work on G21C G27A G29U C37A C42G U43G yielded a self-cleavage of 0.01. G22A G36U A41C showed a self-cleavage of 0.01. Work on G22A A25G G27A G29A C37G G44A yielded a self-cleavage of 0.08. In the case of G22A A26U G33A, the self-cleavage is reported as 0.28. G21U U38G G44C gave a self-cleavage of 0.02. For G21U G29U C37G, the self-cleavage was 0.01. G22A C23G G30C U34C C46A gave a self-cleavage of 0.01. For G22U C37U C46U, the self-cleavage was 0.02. For G21A A25U G33A, the self-cleavage was 0.12. With G22C A24G G33C the self-cleavage was 0.05. With G22U U32G C42A the self-cleavage was 0.07. For C23A A39U G40A, the self-cleavage was 0.05. Work on U20G C31U G36A yielded a self-cleavage of 0.05. With U20G G36A G44U the self-cleavage was 0.03. For G21C C23A G29U G30C, the self-cleavage was 0.45. Work on G21A A25C G35U yielded a self-cleavage of 0.05. U20G G33A G35U U38C A41C showed a self-cleavage of 0.01. G21U U28C G30U G33U gave a self-cleavage of 0.85. G21A U34G G40A A41U gave a self-cleavage of 0.02. With U20G A24U G29A C31G G40A C42A the self-cleavage was 0. For G21A C23U A25G U34G, the self-cleavage was 0.2. In the case of G21A G27U G33U, the self-cleavage is reported as 0.6. G21U G35U C37A gave a self-cleavage of 0.05. Work on U20G C23A A24U G35C C42G yielded a self-cleavage of 0.09. Work on U20G G29C G35U C42G yielded a self-cleavage of 0.02. With G22U C31A U32G the self-cleavage was 0.05. In the case of G21A G27C A41G, the self-cleavage is reported as 0.16. Variant G21U U34G G36C has a self-cleavage of 0.03. G22A G33U G35U gave a self-cleavage of 0.06. Work on U20G A26U C46A yielded a self-cleavage of 0.08. For G21C G30C C45U C46U, the self-cleavage was 0.41. Variant G21U U38A C46U has a self-cleavage of 0.13. G21U U38A C46A gave a self-cleavage of 0.3. For G21U A26G C45A, the self-cleavage was 0.51. In the case of G21C C23U G40A, the self-cleavage is reported as 0.03. For G21U G36A C42G, the self-cleavage was 0.03. Work on G22A G36U C37A A41C C46U yielded a self-cleavage of 0.01. G21A U32G A39G G44U showed a self-cleavage of 0.02. G22U A26C G27C G40U showed a self-cleavage of 0.32. G22U U43A C45U showed a self-cleavage of 0.05. With U20C G40U A41C the self-cleavage was 0.12. In the case of C23A A39C G40A, the self-cleavage is reported as 0.12. In the case of G21U G22U U43A, the self-cleavage is reported as 0.02. G21U C37G U38A A41U showed a self-cleavage of 0.01. Work on G21U A26G G33C C37A G40A yielded a self-cleavage of 0.05. For G22U A24G A39G, the self-cleavage was 0.09. G21C G30U G36A gave a self-cleavage of 0.04. For G21A A26G G30U A41C, the self-cleavage was 0.05. C23A A24U G36A showed a self-cleavage of 0.17. In the case of G22C C23U C37A C42A, the self-cleavage is reported as 0.05. G21C A25G U34C showed a self-cleavage of 0.03. For G21U U32G G40U, the self-cleavage was 0.06. U20G A24C A26U showed a self-cleavage of 0.05. Variant G21U A25U G35C has a self-cleavage of 0.02. G21A U34A U38G gave a self-cleavage of 0.05. Work on U20G G30C U34C C42U yielded a self-cleavage of 0.02. In the case of G22A U32A G35C, the self-cleavage is reported as 0.13. U20G G27U U43C showed a self-cleavage of 0.13. For G22A G30A G33U G40U, the self-cleavage was 0.04. For G22A G27A G35C, the self-cleavage was 0.23. With G21C G30C U32C U34G the self-cleavage was 0.02. Variant G21C G22C C37A A39U has a self-cleavage of 0.03. G21A G29U C42A gave a self-cleavage of 0.22. Work on C23A G27A A41C yielded a self-cleavage of 0.02. In the case of C23A C31U A41U U43A C46A, the self-cleavage is reported as 0.02. G22A U32G C45U gave a self-cleavage of 0.37. Work on G22C C23A G30U C31A C46A yielded a self-cleavage of 0.13. G21U G30C G33A showed a self-cleavage of 0.09. With G22U C37A C45U the self-cleavage was 0.02. Work on U20G U28C G33C yielded a self-cleavage of 0.09. Work on G21U G22A U28G yielded a self-cleavage of 0.28. In the case of G21U C31U U38A G44C, the self-cleavage is reported as 0.09. Variant G21A G30A U34A G35U A39C has a self-cleavage of 0.01. Work on G21U C23G U28G yielded a self-cleavage of 0.52. With U20G A26G C42U the self-cleavage was 0.2. U20G G29U C31A U32G A39G G44U gave a self-cleavage of 0.02. For G21C U38C C45U, the self-cleavage was 0.38. Work on C23A A25U A26U yielded a self-cleavage of 1.18. With G22U U28G G36C C37G the self-cleavage was 0.03. In the case of G21A A24U C37U, the self-cleavage is reported as 0.03. G21U C23U U34G gave a self-cleavage of 0.24. Work on G21U U32G G35A yielded a self-cleavage of 0.03. G22C U28G C45G showed a self-cleavage of 0.09. Work on G22C A24U G36U U38G C46A yielded a self-cleavage of 0.02. For G21U G22U C23U G30A G44C, the self-cleavage was 0.23. In the case of U20G G36A A41U, the self-cleavage is reported as 0.25. Work on G22A G35A G44U yielded a self-cleavage of 0.06. Work on G21A G22C C23U U34A C37U yielded a self-cleavage of 0.04. In the case of U20G G27A G44C, the self-cleavage is reported as 0.33. Variant U20C U28G G36U has a self-cleavage of 0.01. For G21U G35U U38C G40U, the self-cleavage was 0.25. With G21C G40A C42A the self-cleavage was 0.04. Variant G21C G22A G36C U38C has a self-cleavage of 0.03. For C23A C31U G36A, the self-cleavage was 0.07. U20G G22A G33C showed a self-cleavage of 0.2. G22U C31G C45G showed a self-cleavage of 0.03. G22C G40A G44C showed a self-cleavage of 0.15. C23A G27C U32G G35A gave a self-cleavage of 0.04. U20G A24G G40U showed a self-cleavage of 0.27. In the case of G22C U32A G35A C42G, the self-cleavage is reported as 0.06. With G22U G29C C31U G35A the self-cleavage was 0.06. Work on G22U G29U C45U yielded a self-cleavage of 0.61.
